From PMC4336329 (PLoS ONE, 2015)
In all, about 310,000 compounds went through this assay and about 14,000 (4.5%) showed an effect of 50% or more. The effect is printed as a negative number. This is one part of the list.

biological target: human ether-à-go-go-related gene (hERG) potassium channel (human, UniProt Q12809); assay: primary screen, population patch clamp on CHO cells stably expressing hERG
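Note: peak tail current of the secondary pulse compared with the same well before compound.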

Chain of human ether-à-go-go-related gene (hERG) potassium channel (Q12809 whole entry, looked up): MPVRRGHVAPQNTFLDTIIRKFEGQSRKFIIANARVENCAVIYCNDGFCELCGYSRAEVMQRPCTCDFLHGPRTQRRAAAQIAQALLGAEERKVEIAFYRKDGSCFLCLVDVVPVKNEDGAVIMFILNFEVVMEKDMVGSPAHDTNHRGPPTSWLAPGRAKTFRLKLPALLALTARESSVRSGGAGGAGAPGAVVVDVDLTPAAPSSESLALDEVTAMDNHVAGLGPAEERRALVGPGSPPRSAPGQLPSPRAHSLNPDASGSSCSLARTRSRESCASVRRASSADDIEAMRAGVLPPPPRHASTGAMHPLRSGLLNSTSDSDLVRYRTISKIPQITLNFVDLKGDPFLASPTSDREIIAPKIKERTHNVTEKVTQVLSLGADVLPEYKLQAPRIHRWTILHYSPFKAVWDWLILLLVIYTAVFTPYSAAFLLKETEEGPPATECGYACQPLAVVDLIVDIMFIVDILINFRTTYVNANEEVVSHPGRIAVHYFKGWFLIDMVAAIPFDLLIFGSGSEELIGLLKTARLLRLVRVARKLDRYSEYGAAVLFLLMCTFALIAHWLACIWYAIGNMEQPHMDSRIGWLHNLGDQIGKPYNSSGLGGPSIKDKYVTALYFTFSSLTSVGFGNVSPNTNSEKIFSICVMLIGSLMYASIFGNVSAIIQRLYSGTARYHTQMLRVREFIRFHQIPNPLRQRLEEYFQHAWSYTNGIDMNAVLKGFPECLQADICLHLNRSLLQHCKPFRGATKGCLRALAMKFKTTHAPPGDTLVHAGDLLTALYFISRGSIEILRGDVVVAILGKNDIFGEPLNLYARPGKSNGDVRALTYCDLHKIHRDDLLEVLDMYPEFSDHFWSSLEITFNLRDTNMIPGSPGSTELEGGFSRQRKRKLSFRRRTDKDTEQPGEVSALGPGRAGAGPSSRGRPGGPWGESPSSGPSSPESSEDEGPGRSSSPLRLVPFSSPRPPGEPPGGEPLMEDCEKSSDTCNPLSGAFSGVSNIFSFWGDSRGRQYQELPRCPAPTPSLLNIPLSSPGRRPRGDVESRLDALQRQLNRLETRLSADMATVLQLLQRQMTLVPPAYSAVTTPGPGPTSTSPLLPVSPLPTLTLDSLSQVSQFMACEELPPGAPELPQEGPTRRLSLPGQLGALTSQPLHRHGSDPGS

SMILES | hERG current change (%, negative = inhibition) at 10uM
CCOc1ccc(NC(c2ccccc2)P(=O)(OC)OC)cc1 (stereo not shown) | 8.49%
COc1ccccc1OCCNC(=O)c1cc(F)c(F)cc1Cl | -2.68%
COC(=O)CNC(=O)C(NC(=O)c1ccc(Cl)cc1)C(C)C (stereo not shown) | 11.7%
NC(=O)COc1ccc(-n2cnnn2)cc1 | 32.4%
Cc1ccc(NC(=S)c2ccncc2)cc1 | 4.34%
COc1ccc(Cl)cc1NC(=O)C/C(C)=N/NC(=O)c1ccccc1[N+](=O)[O-] | -2.05%
COC(=O)C1C(=O)OC(C)(C)C1C(C)C(=O)c1ccc(C)cc1C (stereo not shown) | 2.5%
O=c1cc(CN2CCN(c3ccccc3)CC2)c2c(ccc3ccccc32)o1 | -34%
COc1ccc(CNC(=O)C(=O)NCC(c2ccco2)N2CCOCC2)cc1 (stereo not shown) | 0.899%
Cc1cccc(C(=O)c2c(N)sc3c2CCC(C)C3)c1 (stereo not shown) | 2.78%
CN(N)c1ccc2c(C(F)(F)F)cc(C(F)(F)F)nc2n1 | 12.8%
COCc1ccc([C@@H]2C[C@H]3CN(Cc4cccc(Cl)c4)C(=O)[C@]34CCCN24)o1 | -31%
COc1ccc(C(=O)NCC(=O)OCc2nc(N)nc(Nc3ccccc3C)n2)cc1 | -40.1%
CCCN1CCN(CCCNC(=O)c2ccc(CS(=O)c3ccc(OC)cc3)o2)CC1 (stereo not shown) | 6.98%
COc1ccc(CC2(CO)CCN(Cc3ccc(OC(F)(F)F)cc3)CC2)cc1 | -75.1%
COc1cccc(CNC(=O)CN2C(=O)CSc3ccc(S(=O)(=O)N4CCCCC4)cc32)c1 | -27.8%
Cc1cccn2c(=O)c3cc(C(=O)NCCN4CCOCC4)c(=N)n(Cc4ccc(F)cc4)c3nc12 | -72.9%
CC1=CC(=C(C#N)c2nc3ccccc3s2)C=C(C)N1c1ccc(F)cc1F | 13.3%
CC(=O)c1c(C)[nH]c(C(=O)N2CCN(c3ncccn3)CC2)c1C | 2.83%
CC(O)CCC(=O)NNC1CC(=O)N(c2ccccc2)C1=O (stereo not shown) | 10.1%
Cc1ccccc1C(=O)NCCCc1ccccc1 | 12.5%
OCCNc1nc(Nc2ccccc2C(F)(F)F)nc(N2CCCC2)n1 | -18.7%

SMILES | hERG current change (%, negative = inhibition) at 10uM
O=C(Nc1nccs1)c1cccc(NC(=O)c2ccco2)c1 | -7.4%
Cc1ccc(NC(=O)c2cc(NC(=O)C3CC=CCC3C(=O)O)ccc2N2CCOCC2)cc1Cl (stereo not shown) | 0.444%
O=[N+]([O-])c1ccc(N/N=C/c2ccccc2)cc1 | 10.1%
CCN1C(=O)CC(N2CCN(c3ccc(Cl)cc3)CC2)C1=O (stereo not shown) | -14%
O=C(CN1C(=O)COc2ccccc21)N(Cc1cccnc1)Cc1cccc(F)c1 | -33.8%
Cc1cccnc1NC(=O)CCc1nnc2ccc(N3CCC4(CC3)OCCO4)nn12 | 15.3%
CNCC(O)C(O)C(O)C(O)CO (stereo not shown) | -0.427%
CCCC(=O)NC(c1cccs1)c1cc([N+](=O)[O-])c2cccnc2c1O (stereo not shown) | 3.65%
Cc1ccc(C(C)NC(=O)c2cc(C)oc2C)cc1 (stereo not shown) | -14.2%
CC(C)COC(=O)n1c(SCC(N)=O)nc2ccccc21 | -10.8%
CCN(CC(=O)Nc1c(F)cccc1F)C(=O)c1ccc(N2CCCC2)c([N+](=O)[O-])c1 | -20.1%
COc1ccc(CCNC(=O)Cn2nnc(-c3ccc(N(C)C)cc3)n2)cc1OC | 5.11%
CS(=O)(=O)c1ccc(Cl)c(C(=O)Nc2ccc3nc(N4CCOCC4)sc3c2)c1 | 8.12%
COc1cc(SC)ccc1C(=O)N1CCN(Cc2ccc3c(c2)OCO3)CC1 | -34.3%
CC(O)c1nc2ccccc2n1CC(=O)Nc1ccc2c(c1)OCCO2 (stereo not shown) | -4.28%
C=C1CCN([C@@H](CC(C)C)C(=O)NCc2ccc(OC)cc2)S(=O)(=O)c2ccccc21 | -24.9%
CCSC(C)CC1C/C(=N/O)c2c(C)noc2C1 (stereo not shown) | -63.4%
CCn1nnnc1SCC(=O)c1cccc(OC)c1 | 6.45%
CCCCCCCCC(=O)NCCOc1ccc(OC)cc1 | 0.912%
Cc1c(C(=O)O)sc2ncn(C)c(=O)c12 | 10.5%
CN(Cc1nccn1C)C(=O)C1CCC(=O)N(CCc2ccc(Cl)cc2)C1 (stereo not shown) | -53.8%
COc1ccc(C(=O)CSc2n[nH]c(=O)n2Cc2ccco2)cc1 | -0.235%

SMILES | hERG current change (%, negative = inhibition) at 10uM
CC1=CN2C(=NC(=O)CC2(C)C(=O)N(CC(=O)NC2CCCC2)c2ccccc2C)C=C1 (stereo not shown) | 8.47%
CSCCC(NC(=O)c1ccccc1Cl)C(=O)Nc1ccc(C)c(S(=O)(=O)N2CCOCC2)c1 (stereo not shown) | -5.23%
CCCCNC(=O)COC(=O)c1cc(F)c(F)cc1Cl | 13.6%
COc1ccccc1NC(=O)/C(=C/c1ccncc1)NC(=O)c1ccccc1 | -10.6%
CCN1CCCC1CNC(=O)c1cc(S(=O)(=O)N(C)C)ccc1Cl (stereo not shown) | 8.24%
CCOc1cc(CNCCSc2nnnn2C)cc(Br)c1OCc1ccccc1F.Cl | -22.3%
Cc1nc(SCc2ccc(O)c([N+](=O)[O-])c2)n[nH]1 | 13.9%
COc1cc(OC)cc(C(=O)NCCCN2CCN(CCCNC(=O)c3cc(OC)cc(OC)c3)CC2)c1 | -48.8%
CC(=O)Nc1nc(CC(C)C)cc(-c2ccccc2)c1C#N | 4.98%
CC(C)(O)C#Cc1ccc(C(=O)N2CCN(C(=O)c3ccco3)CC2)cc1 | -2.64%
Cc1cc(C)c2nc(N3CCC(C(=O)NCCN4CCOCC4)CC3)sc2c1 | -10.5%
N#Cc1ccc(C(=O)Nc2ccn(-c3ccccc3)n2)cc1 | -15.9%
Cc1ccc(S(=O)(=O)N(C)C)cc1NC(=S)NNC(=O)C1CC1 | -54.6%
CCn1nc(C)c(CN2CCC(C(=O)Nc3cccc(-c4cccc(Cl)c4)c3)CC2)c1C | -65%
CCCCN(CC)C(=O)Cn1cnc2ccc(S(=O)(=O)N3CCC(C)CC3)cc2c1=O | -57%
O=C(O)c1ccccc1NS(=O)(=O)c1ccccc1C(F)(F)F | 3.88%
O=C(Nc1ccc2c(c1)CCC2)c1cc2ccccc2o1 | -0.479%
CCc1cc(C(=O)c2ccc(OC)cc2)c(NC(=O)CCC(=O)O)s1 | 2.58%
Cc1ccc2nc(C)c(C(=O)N/N=C/c3cccc([N+](=O)[O-])c3)cc2c1 | -37.1%
COc1cccc(NC(=O)CSCc2n[nH]c(=O)[nH]2)c1 | 19.4%
Cc1c(C(=O)N2CCOCC2)sc(NC(=O)c2ccc3c(c2)OCO3)c1C#N | 8.15%
CCN1CCN(C(c2ccccc2)c2nnnn2Cc2ccccc2)CC1.Cl (stereo not shown) | -27.4%

SMILES | hERG current change (%, negative = inhibition) at 10uM
O=C(N/N=C1/CC2CCC1C2)c1cc2ccccc2cc1O (stereo not shown) | 10.6%
Cc1c(NC(=O)CSc2nnc(-c3ccco3)n2-c2ccccc2)c(=O)n(-c2ccccc2)n1C | 5.6%
O=C(N/C(=C\c1ccco1)C(=O)N1CCCC1)c1cccs1 | -9.62%
CC(=O)c1ccc(NC(=O)CN2C(=O)NC(C)(c3ccc4c(c3)OCCO4)C2=O)cc1 (stereo not shown) | 1.1%
Cc1csc(NC(=O)c2ccc(C)o2)n1 | 6.8%
O=C(COc1ccc(S(=O)(=O)N2CCCC2)cc1[N+](=O)[O-])N1CCCC1 | -4.62%
CCCC1(C(=O)OCC)NC(c2ccc(OC)cc2OC)C2C(=O)N(c3ccccc3)C(=O)C21 (stereo not shown) | 0.0733%
CC(=O)NC1Sc2ccccc2N=C1c1ccccc1 (stereo not shown) | 14.1%
COc1ccc(C)cc1NC(=O)C(Sc1ccccc1)c1ccccc1 (stereo not shown) | 2.29%
Cc1ccc(C)c(CN2CCC(CNC(=O)CCc3nnc4ccc(N5CCCCC5)nn34)CC2)c1 | -30.3%
Cn1c(=O)c2cc(S(=O)(=O)NCCC(=O)NCCC3=CCCCC3)ccc2n(C)c1=O | -15.8%
Clc1cccc(Cl)c1OCCOCCNCc1ccccc1.O=C(O)C(=O)O | -31.2%
Cc1cccc(NC(=S)NC(=O)/C=C/c2ccco2)c1 | 4.02%
COc1ccc(NC(=O)Nc2ccon2)cc1OC | -5.22%
O=[N+]([O-])c1ccc(N2CCN(c3ccccc3)CC2)cc1 | 4.77%
OC[C@H]1O[C@@H](n2cnc3c(NC4CCCC4)ncnc32)[C@H](O)[C@@H]1O | 10.4%
Cc1cccc(C(=O)N2N=C(c3ccc(NS(C)(=O)=O)cc3)CC2c2cccs2)c1 (stereo not shown) | -8.44%
COc1ccc(-c2cc(-c3ccccc3)n3ncnc3n2)cc1 | -60.9%
Cc1ccc(C2(C)NC(=O)N(CC(=O)NNC(=O)c3ccoc3C)C2=O)cc1 (stereo not shown) | 26.6%
COCCCn1c(C)nnc1SCC(=O)NNC(=O)COc1ccc(Cl)cc1 | 22.6%
COCC(=O)Nc1ccccc1-c1ccccc1 | 22.9%
Cc1ccc(C(=O)NCCCNC(=O)c2ccco2)cn1 | 15.9%
